Values joined by “and” are separate entries in the source; they are usually repeats but may differ in a detail not shown here. Equal values may be shown once. About 230 (0.21%) of roughly 110,000 compounds showed an effect of 50% or more. Some of the results follow. Where a SMILES comes first, the peptide text is derived from it. The star is where a group is joined. Cbz = O=C(OCc1ccccc1)*
Each compound was assayed against DPAP1 (Plasmodium falciparum, UniProt Q8IIJ9) (assay: primary screen, percent inhibition; read by cleavage of a fluorogenic dipeptide substrate; higher = more effect of the substance).
Sequence of DPAP1 (Q8IIJ9 whole entry, looked up): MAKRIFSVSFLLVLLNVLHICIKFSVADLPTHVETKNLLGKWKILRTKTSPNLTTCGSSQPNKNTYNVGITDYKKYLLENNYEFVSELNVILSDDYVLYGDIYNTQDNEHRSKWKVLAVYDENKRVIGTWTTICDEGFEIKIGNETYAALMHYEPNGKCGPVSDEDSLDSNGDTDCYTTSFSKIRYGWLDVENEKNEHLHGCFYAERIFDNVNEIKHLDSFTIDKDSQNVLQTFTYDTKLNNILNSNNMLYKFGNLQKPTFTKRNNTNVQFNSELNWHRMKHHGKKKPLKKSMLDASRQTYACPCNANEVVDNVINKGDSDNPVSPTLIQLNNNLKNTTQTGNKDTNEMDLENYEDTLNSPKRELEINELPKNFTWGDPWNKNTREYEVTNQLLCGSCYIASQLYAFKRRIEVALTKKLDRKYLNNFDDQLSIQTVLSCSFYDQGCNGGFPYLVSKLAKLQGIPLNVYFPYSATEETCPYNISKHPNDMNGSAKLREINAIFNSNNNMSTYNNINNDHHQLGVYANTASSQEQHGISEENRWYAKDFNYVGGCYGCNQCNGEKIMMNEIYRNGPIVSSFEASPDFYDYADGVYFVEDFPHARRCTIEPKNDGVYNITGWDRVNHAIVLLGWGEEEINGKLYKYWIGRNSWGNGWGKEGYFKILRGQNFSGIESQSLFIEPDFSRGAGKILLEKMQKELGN
Design: species or system P. falciparum D10 trophozoite lysates; single well
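Further: 30 min substrate incubation versus DMSO and 10 µM JCP410 controls.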

| SMILES | % Inhibition @ 10 uM |
| --- | --- |
| COc1cccc(CN2CC3=C(C2=O)C(c2ccccc2)NC(=O)N3)c1 (centres unmarked) | -1.97% |
| c1cc2c(cc1CCNC1CCCCCC1)OCO2 | -3.49% |
| N#CC(=C\c1[nH]c2ccccc2c1O)/C(N)=N/CCc1ccccc1 | -3.06% |
| CC(C)CC(NC(=O)C1CCCN1C(=O)CNC(=O)OCc1ccccc1)C(=O)O (stereo not drawn) (Cbz-Gly-Pro-Leu-OH; configuration not given here) | 3.25% |
| Cc1ccccc1NC(=O)CSc1nc2ccccc2n1C | -5.3% |
| CC(C)Oc1ccc(C2CC(=O)NC2=O)cc1 (centres unmarked) | 2.51% |
| Nc1nc2c(S(=O)(=O)c3cccc(Cl)c3)nnn2c2ccsc12 | -8.43% |
| Cc1cc(=O)n2nc(N3CCC(C(=O)NCc4cccc(Cl)c4)CC3)sc2n1 | -5.63% |
| N#Cc1sc2nc(N)c(C#N)c(-c3ccccc3)c2c1N | -2.39% |
| FC(F)(F)c1cccc(Nc2nc3nonc3nc2Nc2ccc(Br)cc2)c1 | 4.54% |
| CCOC(=O)c1cnc2c(ccc3ccccc32)c1O | -2.48% |
| CC1CCC(N2CCN(C/C=C/c3ccccc3)CC2)C1 (centres unmarked) | -3.8% |
| Oc1cc(Nc2ccc(Cl)c(Cl)c2)nc(O)n1 | -2.71% |
| CCCCCSc1nc2c(c(=O)[nH]c(=O)n2C)n1Cc1ccccc1 | 0.385% |
| CC(=O)Nc1ccc(CN2CCN(C)CC2)cc1 | -3.65% |
| Cc1cc2sc3ccccc3c(=O)c2cc1O | 0.962% |
| O=C1N/C(=C/c2cccs2)C(=O)N1Cc1ccc(F)cc1 | 0.316% |
| CCN(CC)CCC/N=C/c1c(O)[nH]c2ccccc12 | 7.76% and 2.55% |
| COc1ccc(-c2noc(/C=C/c3ccccc3Cl)n2)cc1OC | 0.331% |
| Cc1ccc(C(=O)CCC(=O)NC2=NCCS2)cc1 | -3.21% |
| O=C(NCCN1CCOCC1)C1CCN(c2nc3ccccc3n3cccc23)CC1 | -5.37% |
| Cc1c(Cl)cccc1NC(=O)/C=C/c1ccc2c(c1)OCO2 | 5.06% |
| Brc1ccccc1CN1CCN(Cc2ccccc2)CC1 | -3.71% |
| CC(C)N(C(=O)c1ccc(C(=O)N2CCCCC2)cc1)C(C)C | -6.42% |
| COc1ccc2c(c1)CCc1c(C(=O)NC(C)c3ccccc3)noc1-2 (centres unmarked) | -3.12% |
| C#CCn1cnc2c(cnn2-c2ccc(Cl)cc2)c1=O | 1.63% |

| SMILES | % Inhibition @ 10 uM |
| --- | --- |
| CC1CCCN(C(=O)Cn2ncc3c2-c2ccccc2OC3)C1 (centres unmarked) | -5.27% |
| O=C(COc1ccc(S(=O)(=O)NCc2ccccc2)cc1)Nc1ccc2c(c1)OCCO2 | -0.536% |
| CCC(C(=O)NCc1ccc2c(c1)OCO2)n1nc(C)c2c(C)n(-c3ccccc3)nc2c1=O (centres unmarked) | -6.33% |
| Cc1nn(Cc2ccccc2)c(C)c1NC(=O)c1cc2n(n1)C(C(F)(F)F)CC(c1ccccc1)N2 (centres unmarked) | 2.32% |
| COc1ccc(OC)c(N(CC(=O)Nc2ccccc2)S(=O)(=O)c2ccccc2)c1 | -6.62% |
| O=C(CSc1cn(CC(=O)N2CCOCC2)c2ccccc12)NCc1ccco1 | 1.66% |
| CCc1ccc(-c2nc(CN3CCC(C(=O)NCc4ccccc4Cl)CC3)c(C)o2)cc1 | -6.64% |
| CCc1ccc(C2=NN(CCC(=O)NC3CCC(C)CC3)C(=O)CC2)cc1 (centres unmarked) | -6.4% |
| CC(C)OCC(O)CSc1nc2ccccc2s1 (centres unmarked) | 3.35% |
| CC(C)NC(=O)CNC(=O)c1cccs1 | -4.97% |
| c1ccc(-c2cnc(-c3cccs3)o2)cc1 | -4.04% |
| NC1=NC(=O)C(Cc2cccc(Cl)c2)S1 (centres unmarked) | 1.43% |
| Cc1ccc2nc(N3CCN(Cc4ccccc4)CC3)c3nnnn3c2c1 | -0.414% |
| CCN1CCC(N2CCSCC2)CC1 | -1.5% |
| CCOC(=O)C1=C(C)N=C(C)/C(=C(/O)OCC)C1C(=O)O (centres unmarked) | -3.48% |
| CCCC(=O)c1c(NCc2ccccc2)cc(C)oc1=O | 4.57% |
| CCOC(=O)c1c(S(=O)(=O)N2CCN(Cc3ccccc3)CC2)c(C)n(C)c1C | 7.23% |
| CCOc1ccccc1-c1noc(-c2ccco2)n1 | -6.64% |
| COc1cccc(/C=C(\C#N)c2nc(-c3ccc(Cl)cc3)cs2)c1 | -2.6% |
| COc1cc(NC(=O)c2ccc(OC(C)C)cc2)ccc1NC(=O)C(C)C | -8.59% |
| CCCSc1nc(O)c2cnn(-c3ccc(C)c(C)c3)c2n1 | 1.9% |
| CN(C)c1ccc2c(c1)OC(N)=C(C#N)C2c1cccc2ccccc12 (centres unmarked) | 6.06% |
| COc1cc(SC)ccc1C(=O)Nc1ccccc1 | -2.64% |
| O=C1CCCC/C1=C/Nc1cccc(C(F)(F)F)c1 | 7.2% |
| O=C(NCc1cccnc1)c1ccc(CSCc2ccccc2Cl)o1 | -0.0542% |
| Cc1ccc(N2C(=O)CC(N3CCc4ccccc4C3)C2=O)cc1Cl (centres unmarked) | -1.98% |

| SMILES | % Inhibition @ 10 uM |
| --- | --- |
| CCCNC(=O)CCc1nc(-c2cc(OC)c(OC)c(OC)c2)no1 | 2.02% |
| CC(C)NC(=O)C(C)(C)Oc1ccc(Cl)cc1 | -1.24% |
| CC(=O)N1CCC2(CC1)CC(=O)c1cc(OCC(=O)N3CCC4(CC3)OCCO4)ccc1O2 | -1.28% |
| Cc1nc(N2CCOCC2)c2c(C)c(C(=O)NCc3ccc(F)cc3)sc2n1 | 0.238% |
| Cc1nc2c(C)c(-c3ccccc3)nn2c(O)c1Cl | 1.42% |
| O=C(CCC1=Nc2ncc(Br)cc2S(=O)(=O)N1)NCc1ccccn1 | -8.56% |
| CCCn1c2ccccc2c2cnn(CC(=O)N3CCN(C)CC3)c(=O)c21 | 3.27% |
| CCn1c(=N)n(CCOc2ccccc2)c2ccccc21 | -1.59% |
| COC(C(=O)Nc1ccc(C)c(C)c1)c1ccccc1 (centres unmarked) | -2.97% |
| Cc1cccc(C(=O)Nc2ccc(C)c(F)c2)c1 | 2.13% |
| N#CCNC(=O)[C@H](CC1CCC(F)(F)CC1)NC(=O)c1ccccc1 | -5.21% |
| CN1CCC(N2CCCC2CO)CC1 (centres unmarked) | -1.75% |
| O/N=C(\Cc1ccccc1)c1c[nH]c2ccccc12 | -0.744% |
| COc1cccc(S(=O)(=O)Nc2ccc(C(=O)Nc3ccc(Br)cc3F)cc2)c1 | 1.84% |
| CCOCCCNCc1c(C(=O)O)c(C)n(Cc2cc(C)ccc2C)c1C | -0.23% |
| C=CCNC(=O)Cn1nc(-c2ccccc2)ccc1=O | 0.514% |
| O=C(NCC1CCCO1)c1cnc(N2CCCC2)nc1 (centres unmarked) | 3.55% |
| O=C(c1cccc(F)c1)N1CCN(Cc2ccccn2)CC1 | 11.5% |
| Cc1ccnc(NS(=O)(=O)c2ccc3ccccc3c2)c1 | -0.849% |
| CN1CCCN(Cc2ccccc2)CC1 | 4.81% |
| CCOC(=O)N1CCN(C(=O)CN(c2ccccc2Cl)S(C)(=O)=O)CC1 | -0.641% |
| O=c1oc2ccccc2c(O)c1Sc1ccccc1 | -1.76% |
| CCOc1c(S)cnn(-c2ccccc2)c1=O | 13% |
| COC(=O)N(C)CC1Cc2ccccc2O1 (centres unmarked) | -2.36% |
| CC(=O)c1sc(Nc2nc(NC(C)C)nc(NC(C)C)n2)nc1C | -2.14% |
| O=C(NCC1CCCO1)C1c2ccccc2C(=O)N1CCc1ccccc1 (centres unmarked) | -1.29% |

| SMILES | % Inhibition @ 10 uM |
| --- | --- |
| O=C(Cc1ccccc1)Nc1cccc(C(=O)Nc2nccs2)c1 | -3.09% |
| CCN(Cc1ccc(OC)cc1)S(=O)(=O)c1nnc(NC(=O)c2cccc(F)c2)s1 | -1.95% |
| Cc1nc2ccccn2c1C(=O)NC(C)c1ccccc1 (centres unmarked) | -0.0648% |
| CCCC(=O)/N=C(\N)Nc1nc(C)c2ccccc2n1 | 3.95% |
| CCOc1ccccc1NC(=O)C1=C(C)NC(=O)NC1c1cc(OC)c(OC)c(OC)c1 (centres unmarked) | -0.69% |
| CCOC(=O)C1=C(N)Oc2c(c(=O)oc3ccccc23)C1c1ccc(Br)cc1 (centres unmarked) | -4.31% |
| COc1ccc(C2(C(=O)NCCCN(C)C)CCCC2)cc1 | -1.43% |
| Cc1ccc2c(c1)cc1c(=O)n(CC(=O)NC(C)c3ccccc3)nc(C)n12 (centres unmarked) | 6.35% |
| O=C1OC(C2CCCCC2)=N/C1=C\c1ccc(Cl)cc1 | 12.2% |
| O=c1c2cc3c(=O)n(CCO)c(=O)c3cc2c(=O)n1CCO | -0.0369% |
| O=C(NCc1ccc2c(c1)OCO2)c1cc(-c2ccccn2)nc2ccccc12 | -0.519% |
| O=C(O)c1ccccc1C(=O)Nc1ccc(N2CCN(CCO)CC2)cc1 | 1.94% |
| CN1CCN(Cc2ccc(F)cc2)CC1 | -0.127% |
| Cc1ccccc1Cn1c(C)c(CNCc2ccc3c(c2)OCO3)c(C(=O)O)c1C | -7.36% |
| Cc1sc2c(c1C)CSC(C(=O)NCCc1ccc(Cl)cc1)=C2 | 7.63% |
| COc1ccc(Cl)cc1C(=O)N1CCN(c2ccc(Cl)cc2)CC1 | 17.5% |
| COc1ccccc1NC(=O)c1c(NC(=O)c2ccco2)sc2c1CCC(C)C2 (centres unmarked) | 0.144% |
| c1ccc(-c2ccc(Oc3cc(-n4cccn4)ncn3)cc2)cc1 | 3.48% |
| COc1ccc(-n2nc3c(N4CCCC(C(=O)NCCC5=CCCCC5)C4)nnc(C)c3c2C)cc1 (centres unmarked) | 4.05% |
| Cc1cc(C)c2c(N)c(C(=O)Nc3ccccc3Cl)sc2n1 | -2.82% |
| CC(NC(=O)CCS(=O)(=O)Cc1ccccc1F)c1ccccc1 (centres unmarked) | 2.18% |
| Nc1nonc1N1CCCCC1 | -3.53% |
| CCC1=CC(C)(CC)N(Cc2ccc([N+](=O)[O-])cc2)c2ccccc21 (centres unmarked) | -1.47% |
| COCC(C)NCc1ccccc1Br (centres unmarked) | -1.56% |
| Cn1c(=O)c2c(nc(SCC(=O)Nc3ccc4c(c3)OCO4)n2Cc2ccccc2)n(C)c1=O | 1.13% |
| COc1ccc2cc(OCC(=O)N3N=C(C(F)F)CC3(O)C(F)F)ccc2c1 (centres unmarked) | -0.99% |

From article PMC6919601, “Identification of Plasmodium dipeptidyl aminopeptidase allosteric inhibitors by high throughput screening” (PLoS ONE, 2019)
